# From PubChem BioAssay AID1458 (National Center for Advancing Translational Sciences (NCATS), 2008)
# Among all 210,000 compounds or so, about 5,900 (2.8%) were called active. The inconclusive results got no clear call from the source; some entries with a clear call stand among them for comparison. The call rests on the fitted dose curve; in most records, active means well fitted activation curve with a large enough effect; inconclusive means small, poorly fitted or top-dose-only effect; inactive means no such curve, though single readings can be large or run the other way. Where the call is inconclusive, the potency comes from a doubtful curve fit.
# Test: qHTS Assay for Enhancers of SMN2 Splice Variant Expression; further: nearly all actives have a fitted effect of over 55% in size; on activity change, positive = activation: % of control where 0% means no effect
# Details: HEK293 SMN2-luciferase splicing reporter, luminescence, 30-36 h; activity change, positive = activation: at 46.1 µM (top of the series)
# Procedure, shortened: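 HEK293 cells carry an SMN2 minigene-luciferase reporter in which exon 7 inclusion puts luciferase in frame. Cells were seeded at 2000 cells/well, attached for 10-12 hours, then exposed to compounds for 30-36 hours at 37C before ONE-Glo luminescence.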
# Potency means the concentration at half of the fitted maximal effect; tags describe the fitted curve by direction and shape.
SMILES,Potency,"activity change, positive = activation"
COc1cccc(-n2nnc3c(=O)n(CC(=O)NCC4CCCO4)cnc32)c1 (centres undefined),"inconclusive: 5.62 µM [activator, single point]",
N#Cc1ccccc1Cn1c(=O)n(-c2ccc(F)c(Cl)c2)c(=O)c2sccc21,,inactive: 5.92%
O=C(C1=C(Nc2ccccc2)c2ccccc2S(=O)(=O)N1)c1ccccc1,,inactive: -16.3%
Cc1ccc(S(=O)(=O)Nc2cc3c(C(=O)OCc4ccccc4)c(C)oc3c3ccccc23)cc1,,inactive: 13.2%
CN(C)C(=O)N1CCCC(C(=O)NCc2ccc(F)cc2Cl)C1 (centres undefined),"inconclusive: 0.0891 µM [activator, full curve, poor fit]",
N#Cc1c(-c2ccc(Cl)cc2)ccn2nc(C3CCCCC3)nc12,"inconclusive: 1 µM [activator, full curve]",
NC(=O)C1CCN(C(=O)/C=C/c2cc(Br)ccc2F)CC1,"inconclusive: 35.5 µM [activator, single point]",
CCCCOc1cccc(-c2nnc(N)s2)c1,"inconclusive: 0.112 µM [activator, full curve, poor fit]",
COc1ccc2oc(=O)c(-c3nc4ccccc4o3)cc2c1,"inconclusive: 12.6 µM [activator, partial curve]",
Cc1nn(-c2ccccc2)c(Cl)c1/C=N/NC(=O)c1ccc(CNc2ccccc2)o1,,inconclusive: 31.6% [activator]
Cc1ccnc(N/N=C/c2ccco2)n1,"inconclusive: 22.4 µM [activator, single point]",
Cc1nc(C#N)c(N/N=C/c2c(F)cccc2Cl)o1,"inconclusive: 12.6 µM [activator, single point]",
CCS(=O)(=O)N1CCCC(C(=O)NCc2ccc(C)cc2)C1 (centres undefined),"inconclusive: 0.447 µM [activator, partial curve, poor fit]",
N#Cc1c(/N=C/c2cccs2)sc2c1CCC2,active: 17.8 µM,
Cc1ccc(-n2c(C)nc3oc4ccccc4c(=O)c3c2=O)cc1,"inconclusive: 8.91 µM [activator, partial curve, poor fit]",
CNc1ncc(C(=O)c2ccc(Br)cc2)s1,active: 15.8 µM,
CC(C)C(=O)NC(=S)Nc1ccc(S(=O)(=O)N(C)C)cc1,"inconclusive: 1.58 µM [activator, single point]",
O=C(Nc1ccc(CN2CCCCC2)cc1)Nc1ccccc1Cl,"inconclusive: 31.6 µM [activator, single point]",
O=C1CC(C(=O)Nc2cccc3ccccc23)C2(CCCC2)O1 (centres undefined),"inconclusive: 3.55 µM [activator, single point]",
COc1ccc(CNC(=O)CSc2ccsc2[N+](=O)[O-])cc1,"inconclusive: 17.8 µM [activator, single point]",
CC(=O)c1cccc(NC(=S)NC(=O)c2ccc(C)cc2)c1,active: 11.2 µM,
CN=C1SC(CC(=O)Nc2cc(Cl)ccc2Cl)C(=O)N1C (centres undefined),,inactive: 1.02%
CCC(CO)NCc1ccc(OCC(=O)Nc2cccc(C(F)(F)F)c2)c(OC)c1 (centres undefined),"inconclusive: 5.62 µM [activator, single point]",
O=C(/C=C/c1cccc(F)c1)Nc1nccs1,active: 11.2 µM,
Cc1cnc(C(=O)Nc2ccccc2-c2nnn(CC(=O)NC3CCCC3)n2)cn1,"inconclusive: 35.5 µM [activator, single point]",

SMILES,Potency,"activity change, positive = activation"
CC1CCN(Cc2c(O)ccc3c(=O)c(-c4ccc(Cl)cc4)c(C(F)(F)F)oc23)CC1,,inactive: -2.67%
O=c1oc2ccccc2cc1-c1ccc(O)cc1,"inconclusive: 35.5 µM [activator, single point]",
Cc1[nH]c(=O)[nH]c(=O)c1S(=O)(=O)N1CCCC(C(=O)N2CCN(c3ccccc3Cl)CC2)C1 (centres undefined),"inconclusive: 2.24 µM [activator, single point]",
CCc1nnc(NC(=O)c2ccc(S(=O)(=O)N3CCOCC3)cc2)s1,"inconclusive: 4.47 µM [activator, single point]",
CCOC(=O)c1ccc(NC(=O)CSc2nnc(COc3ccccc3)n2C)cc1,"inconclusive: 0.316 µM [activator, full curve, poor fit]",
O=C(CN1C(=O)COc2ccccc21)NCCN1CCc2ccccc2C1,active: 7.08 µM,
O=C(c1ccco1)n1nc(-c2ccc(Cl)cc2)nc1NCc1ccco1,,inactive: 15.2%
Cc1ccccc1OCC(=O)Nc1cccc(C(=O)O)c1,active: 1.58 µM,
Nc1ncnc2c1c(I)cn2C1OC(CO)C(O)C1O (centres undefined),inactive,
Cc1cccc(NC(=S)NNC(=O)c2csc3c2CCCC3)c1,"inconclusive: 7.94 µM [activator, partial curve, poor fit]",
O=C(NCCOc1ccccc1)c1ccccc1,active: 12.6 µM,
COC(=O)C1=C(C)NC(C)=C(C(=O)OC)C1C(=O)OCC(=O)N1c2ccccc2CC1C (centres undefined),"inconclusive: 0.0447 µM [activator, full curve, poor fit]",
CC(C)OC(=O)c1cccc(C(=O)Nc2cccc(NC(=O)c3cccc(C(=O)OC(C)C)n3)n2)n1,,inactive: 8.94%
CCOC(=O)CCc1c(C)nc(-n2[nH]c(C)c(CCO)c2=O)[nH]c1=O,,inactive: 1.67%
N#C/C(=N/Nc1ccc([N+](=O)[O-])cc1)C(=N)N1CCCCC1,active: 3.16 µM,
Fc1ccccc1NC(=S)NN(Cc1ccccc1)c1ccccc1,"inconclusive: 7.08 µM [activator, full curve, poor fit]",
O=C(N/N=C/c1cc2c(cc1Br)OCO2)C1COc2ccccc2O1 (centres undefined),"inconclusive: 20 µM [activator, partial curve]",
Cc1ccc(NC(=O)c2cncc(Br)c2)c(O)c1,"inconclusive: 14.1 µM [activator, single point]",
CCN(CC)S(=O)(=O)c1ccc2c(c1)c(=O)c(C(=O)N1CCc3ccccc3C1)cn2C,"inconclusive: 8.91 µM [activator, full curve, poor fit]",
CCCCOC(=O)c1ccc(O)cc1,"inconclusive: 2.51 µM [activator, partial curve, poor fit]",
O=C(Nc1ccc2c(c1)OCO2)N1CCCC1,"inconclusive: 25.1 µM [activator, single point]",
COc1ccc(-c2cc(C)nc3c(-c4ccccc4)cnn23)cc1,"inconclusive: 5.62 µM [activator, single point]",
CCN1C(=O)C(CC(=O)N2CCN(C(c3ccccc3)c3ccccc3)CC2)N(CC)C1=O (centres undefined),"inconclusive: 3.16 µM [activator, partial curve]",
Cc1ccc(Cc2cnc(NC(=O)C3CCCO3)s2)cc1 (centres undefined),active: 14.1 µM,
CSc1ccc(CN2CCN(C(=O)c3ccncc3)CC2)cc1,,inactive: -50.8%

SMILES,Potency,"activity change, positive = activation"
O=C(Nc1ccc2nc3ccccc3nc2c1)c1ccccc1,active: 3.98 µM,
COc1cccc(OC)c1C(=O)N1CC(C)OC(C)C1 (centres undefined),"inconclusive: 3.98 µM [activator, partial curve]",
Cc1ccccc1NC(=O)CN(c1ccc(F)cc1)S(C)(=O)=O,"inconclusive: 0.282 µM [activator, full curve, poor fit]",
CCCCC1CCC(c2nc(-c3ccccn3)no2)CC1 (centres undefined),active: 11.2 µM,
CC(=O)c1ccc(-c2ccc(C(=O)N3CCCc4ccccc43)o2)cc1,"inconclusive: 10 µM [activator, partial curve, poor fit]",
Nc1ccccc1N,active: 11.2 µM,
CC(C)[C@](N)(C(=O)O)c1ccccc1,,inactive: -2.53% [at 9.22 µM]
Cc1ccc(CCNC(=O)c2cccc(Nc3nc4ccccc4nc3-n3nc(C)cc3C)c2)cc1,,inactive: -1.95%
COc1ccc(OCCOc2ccccc2[N+](=O)[O-])cc1,"inconclusive: 11.2 µM [activator, partial curve]",
Cc1nc2cc(NC(=O)N3c4ccccc4CC3C)ccc2o1 (centres undefined),active: 11.2 µM,
COc1ccc(-c2cn3c(n2)sc2cc(C(=O)Nc4ccc(F)cc4Cl)ccc23)cc1,"inconclusive: 35.5 µM [activator, single point]",
COc1ccc(NC(=O)C(NC(=O)c2ccc(=O)[nH]c2)c2ccc(C)cc2)cc1 (centres undefined),"inconclusive: 0.794 µM [activator, partial curve, poor fit]",
CCOC(=O)C(=CNc1ccc(NC2=NCC(C)S2)cc1)C(=O)OCC (centres undefined),,inactive: -0.663%
CC(=O)N1c2c(cc(Br)cc2S(=O)(=O)NCc2ccccc2Cl)CC1C (centres undefined),,inactive: -3.09%
COc1ccccc1CN1CC[C@@]2(CCCN(C(=O)c3cc(C(F)(F)F)cc(C(F)(F)F)c3)C2)C1,,inactive: -12.2%
Cc1nc2ccccc2c2oc(C(=O)N3CCC(N4CCCCC4)CC3)cc12,,inactive: 10.8%
COc1cc(C(C(=O)NC(C)(C)C)N(C(=O)CNC(=O)c2cccs2)c2ccc(C(C)C)cc2)cc(OC)c1OC (centres undefined),"inconclusive: 0.631 µM [activator, full curve]",
CCOC(=O)C1=C(C)NC(=O)C(C#N)C1c1ccco1 (centres undefined),"inconclusive: 0.251 µM [activator, full curve, poor fit]",
CCCc1ccc(-c2ccc(C(=O)Oc3ccc(Br)cc3)cc2)nc1,,inactive: 3.94%
COC(=O)c1ccc(C(/C=C/[C@@H](C)C(=O)NCc2ccccc2)NC(=O)OCc2ccccc2)cc1 (some centres undefined),,inactive: -10%
CSc1ncccc1C(=O)OCc1ccccc1F,,inactive: 27.7%
COC(=O)c1ccc(N2OC3(C)C=CC2CC3)cc1 (centres undefined),"inconclusive: 25.1 µM [activator, single point]",
CCN(CC)S(=O)(=O)c1cccc(C(=O)Nc2nc3cc4c(cc3s2)OCCO4)c1,,inactive: -77.3%
COc1cccc(N2CCN(C(=O)CN3C(=O)COc4ccc(S(=O)(=O)N5CCC(C)CC5)cc43)CC2)c1,"inconclusive: 22.4 µM [activator, single point]",
